Reference: PubChem BioAssay (NCATS)
Inconclusive means that the source gave no clear call. Such entries were picked first, then a sample of the others. Where the call is inconclusive, the potency comes from a doubtful curve fit. The source made the active and inactive calls. Calls follow the shape of the dose curve; as a rule, active = well fitted cell-killing curve with a large enough effect; inconclusive = small, poorly fitted or top-dose-only effect, or effect the other way; inactive = flat fitted curve, though single readings scatter.

Legend:
[1] = system: Tov-21-G; assay: Primary qHTS to identify gynecologic anti-cancer compounds using libraries of approved drugs and bioactive compounds (AID 1345084); conditions: Gynecologic cancer cell panel viability, ATPlite luminescence, 48 h; series mostly up to 57.5 µM; also: nearly all actives have a fitted effect of over 55% in size
Procedure, shortened: (§1)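 Luminescence from the ATPlite ATP-monitoring reagent indicates viable cell number; lower signal means cytotoxicity. Cells received compound 16 h after seeding and were exposed for 48 h across five concentrations.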

[2] = system: Tov112D; assay: as above; conditions: Gynecologic cancer cell panel viability, ATPlite luminescence, 48 h; series mostly up to 57.5 µM
Procedure, shortened: as §1
Potency is read from the fitted curve at half-maximal effect; tags tell the direction and shape of the fitted curve.

Compound | Potency [1] | Potency [2]
O=C(CCN1CCN(C(=O)OCc2cc(Cl)cc(Cl)c2)CC1)c1ccc2[nH]c(=O)oc2c1 | inactive | –
CC(C)(C)c1ccc(O)c(O)c1 | inconclusive: 20 µM [cytotoxic, partial curve] | inconclusive: 44.7 µM [cytotoxic, partial curve, poor fit]
O=C(Nc1cc2cc[nH]c2cn1)c1ccccc1 | active: 1.26 µM | active: 2 µM
CC1=C[C@@H]2[C@@H]([C@@H](O)C[C@@]3(C)[C@H]2C[C@@H](C)[C@]3(O)C(=O)CO)[C@@]2(C)Cc3cnn(-c4ccccc4)c3C=C12 | inconclusive: 39.8 µM [cytotoxic, single point] | inconclusive: 39.8 µM [cytotoxic, single point]
COc1cc2c(cc1OC)CN(CCc1ccc(NC(=O)c3cc(OC)c(OC)cc3NC(=O)c3cnc4ccccc4c3)cc1)CC2 | inconclusive: 20 µM [cytotoxic, single point] | inconclusive: 28.2 µM [cytotoxic, single point]
COC(=O)/C=C\C(=O)OC | inactive | –
CC(=O)Oc1cccc2c1C(=O)c1c(OC(C)=O)cc(C(=O)O)cc1C2=O | inconclusive: 35.5 µM [cytotoxic, single point] | –
Cc1ccc(N)cc1O | inconclusive: 63.1 µM [cytotoxic, single point] | inconclusive: 63.1 µM [cytotoxic, single point]
Nc1nc2ccc(OC(F)(F)F)cc2s1 | inconclusive: 28.2 µM [cytotoxic, single point] | inconclusive: 39.8 µM [cytotoxic, single point]
